In all, about 310,000 compounds went through this assay and about 2,200 (0.71%) showed an effect of 50% or more. Effects have a minus sign here. Some of the results follow.
Biological target: human ether-à-go-go-related gene (hERG) potassium channel (human, UniProt Q12809)
Assay: primary screen, population patch clamp on CHO cells stably expressing hERG

Sequence of human ether-à-go-go-related gene (hERG) potassium channel (Q12809 whole entry, looked up): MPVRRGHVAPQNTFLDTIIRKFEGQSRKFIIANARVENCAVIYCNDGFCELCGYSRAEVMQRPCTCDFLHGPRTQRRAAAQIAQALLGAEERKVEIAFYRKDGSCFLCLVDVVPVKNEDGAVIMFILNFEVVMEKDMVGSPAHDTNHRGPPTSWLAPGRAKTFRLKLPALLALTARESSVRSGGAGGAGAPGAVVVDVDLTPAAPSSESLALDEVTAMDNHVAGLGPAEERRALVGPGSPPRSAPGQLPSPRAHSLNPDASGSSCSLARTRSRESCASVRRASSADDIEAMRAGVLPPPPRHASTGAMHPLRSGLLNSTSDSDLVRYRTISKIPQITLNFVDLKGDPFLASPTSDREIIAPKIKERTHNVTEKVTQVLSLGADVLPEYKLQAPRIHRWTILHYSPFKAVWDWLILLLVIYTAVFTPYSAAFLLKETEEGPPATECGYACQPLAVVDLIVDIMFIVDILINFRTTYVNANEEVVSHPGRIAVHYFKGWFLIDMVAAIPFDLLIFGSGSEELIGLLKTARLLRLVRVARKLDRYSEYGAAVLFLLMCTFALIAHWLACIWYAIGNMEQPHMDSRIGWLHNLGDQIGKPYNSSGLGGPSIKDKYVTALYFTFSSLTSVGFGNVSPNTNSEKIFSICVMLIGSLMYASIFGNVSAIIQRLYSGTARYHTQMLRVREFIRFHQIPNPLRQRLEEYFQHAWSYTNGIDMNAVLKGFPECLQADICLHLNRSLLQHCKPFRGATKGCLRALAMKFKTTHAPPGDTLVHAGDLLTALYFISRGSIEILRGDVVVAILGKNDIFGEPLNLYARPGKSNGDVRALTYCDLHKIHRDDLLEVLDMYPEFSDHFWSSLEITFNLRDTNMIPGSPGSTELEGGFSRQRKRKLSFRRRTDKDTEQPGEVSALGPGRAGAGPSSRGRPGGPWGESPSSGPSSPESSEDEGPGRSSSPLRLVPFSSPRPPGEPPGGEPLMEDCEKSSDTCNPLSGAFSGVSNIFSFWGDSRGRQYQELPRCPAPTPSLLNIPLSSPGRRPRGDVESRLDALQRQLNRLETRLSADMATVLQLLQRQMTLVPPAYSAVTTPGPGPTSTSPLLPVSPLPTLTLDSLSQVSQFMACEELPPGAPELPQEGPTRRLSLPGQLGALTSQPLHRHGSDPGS

Point of comparison: `COc1ccc(C2(O)CCN(Cc3nnnn3Cc3ccc(C)cc3)CC2)cc1`, “hERG current change (%, negative = inhibition) at 1uM” value 6.65%. Against it:
- O=C(CSc1ccccn1)Nc1nonc1[N+](=O)[O-] — lower, 6%
- Cc1ccc2nc(SCc3cccc([N+](=O)[O-])c3)nc(C)c2c1 — lower, 0.472%
- COc1ccc(-c2noc(COc3ccc(Cl)c(C)c3)n2)cc1 — lower, 5.91%
- CCCCCn1c(CN2CCN(Cc3ccccc3)CC2)nc2c1c(=O)n(C)c(=O)n2C — lower, -57.9%
- Cl.OC1(c2ccc(F)cc2)CCN(Cc2ccccc2)C1 (stereo not drawn) — higher, 7.08%
- COc1ccc(S(=O)(=O)Nc2cc(S(=O)(=O)c3ccccc3)c(O)cc2C)cc1 — higher, 9.14%
- CCOc1ccc(C(C(=O)NCC2CCCO2)N(Cc2cccc(OC)c2)C(=O)c2snc(C(N)=O)c2N)cc1 (stereo not drawn) — lower, -2.85%
- CCCCCCN1C2=NCCN2c2ccccc21.Cl — lower, -82.3%
- Cc1ccsc1-c1nc(CSCC(=O)NCCN2CCCC2)c(C)o1 — lower, -8.26%
- CS(=O)(=O)NCCOc1ccc(S(=O)(=O)NCCOc2ccccc2)cc1 — lower, 4.8%
- O=C(CCc1ccccc1)N1CCN(Cc2ccc(F)cc2Cl)CC1 — lower, 3.86%
- Cc1ccc(C2=NN3C(C(=O)c4ccccc4)Oc4ccccc4C3C2)cc1 (stereo not drawn) — lower, -0.34%
- COC(=O)C[C@H]1c2cc(C(F)(F)F)ccc2S(=O)(=O)N1Cc1ccccc1 — lower, 2.87%
- Cc1ccc(-c2sc(C(=O)NN)c(C)c2C#N)cc1 — higher, 10.5%
- O=C(Nc1ccc(N2CCOCC2)cc1N1CCOCC1)c1cccc([N+](=O)[O-])c1 — higher, 7.77%
- COc1ccc(CCN2C(=O)CC(C(C)c3ccccc3)C2=O)cc1OC (stereo not drawn) — lower, -6.92%
- O=C(O)c1ccccc1-c1ccccc1C(=O)NCc1ccco1 — higher, 13%
- O=C(N[C@@H](Cc1ccc(O)cc1)C(=O)O)c1ccncc1 — higher, 16%
- Cc1ccc(N(CC(=O)Nc2ccc(Br)c(C)c2)S(=O)(=O)c2c(C)[nH]c(=O)[nH]c2=O)cc1 — higher, 11.7%
- CC1(C)CC2CC(C)(CN2C(=O)COC(=O)c2ccc(Cl)c(N)c2)C1 (stereo not drawn) — lower, 4.41%
- CCOc1ccc(S(=O)(=O)N2CCCCC2)cc1NC(=O)C1=COCCO1 — higher, 9.8%
- Cn1nc(N)c2c(-c3ccc(Cl)cc3)c(C#N)c(N)nc21 — lower, 3.77%
- CC(C)(C)c1cc(C(=O)N/N=C/c2ccccc2O)n(-c2ccccc2)n1 — higher, 11%
- CN(C)C(CNC(=O)CSc1nc2sc3c(c2c(=O)n1C)CCCC3)c1ccccc1 (stereo not drawn) — higher, 9.16%
- O=C(NCCc1csc(-c2cccnc2)n1)c1ccccc1 — higher, 14.3%
- Cn1cnc(Sc2ncnc3nc[nH]c23)c1[N+](=O)[O-] — higher, 15.4%
- COc1ccc(CC(=O)O/N=C(\N)Cc2cccc3ccccc23)cc1OC — higher, 12.2%
- C/C=C\C=C/C(=O)Nc1cccc(C2=NOC3(C2)C[C@H](C(N)=O)N(C(=O)Cc2ccc([N+](=O)[O-])cc2)C3)c1 (stereo partly drawn) — higher, 10.4%
- CCCOC(=O)C[N+](C)(C)CCOC1CC2CCC1(C)C2(C)C.[Br-] (stereo not drawn) — higher, 11.2%
- Cc1cccc(CSCCNC(=O)CN2C(=O)c3ccccc3S2(=O)=O)c1 — higher, 13.5%
- CCCc1nc2nc(C)c(NS(=O)(=O)c3ccc(CC(C)C)cc3)c(=O)n2[nH]1 — higher, 9.49%
- Cc1csc(-c2cnn(-c3ccccc3)c2NC(=O)c2ccc(C(F)(F)F)cc2)n1 — higher, 12.6%
- O=C(CSC1=NCCS1)N1CCCC1 — higher, 19.5%
- O=C(c1ccco1)N1CCN(C(=O)c2nn3cccnc3c2Cl)CC1 — higher, 18.4%
- O=C(Nc1nnc(SCc2c(Cl)cccc2Cl)s1)C1CC(=O)N(c2ccc3c(c2)OCCO3)C1 (stereo not drawn) — lower, 1.19%
- Cc1onc(-c2ccccc2Cl)c1C(=O)Nc1ccc(S(=O)(=O)NCC2CCCO2)cc1 (stereo not drawn) — lower, 5.88%
- Cc1cc(-c2ccccc2)n(-c2ccc(C(=O)N3CCN(c4ncccn4)CC3)cc2)n1 — lower, -6.92%
- CCOC(=O)C1(Cc2cccc(F)c2)CCN(C(=O)c2ccoc2C)CC1 — higher, 7.58%
- CCCN(C(=O)c1c(-c2ccccc2)noc1C)c1c(N)n(Cc2ccccc2)c(=O)[nH]c1=O — lower, 4.65%
- CCOC(=O)C1CCN(C(=S)Nc2ccc(S(N)(=O)=O)cc2)CC1 — lower, 6.52%
- COc1ccc(CNC(=O)CN(C(=O)CCC(=O)Nc2ccccn2)c2cccc(C)c2)cc1 — higher, 7.29%
- O=C(CNC(=O)[C@@H]1Cc2ccccc2CN1)NC1CCCC1 — higher, 20.2%
- c1ccc(CN2CN=C(Nc3nc4ccccc4s3)NC2)cc1 — lower, -13.4%
- COc1ccccc1N(CC(=O)NC1CCCC1)C(=O)C1(C)CC(=O)N=C2C=CC(C)=CN21 (stereo not drawn) — lower, 4.88%
- CCOC(=O)C1CCN(S(=O)(=O)c2cc(Br)cc3c2N(C(C)=O)C(C)C3)CC1 (stereo not drawn) — lower, 1.96%
- O=C(Nn1cnnc1)c1ccc(OC(F)(F)C(F)C(F)(F)F)cc1 (stereo not drawn) — higher, 9.24%
- CC(C)[C@@H]1NC(=O)c2cc([N+](=O)[O-])cc(I)c2OCC[C@@H](C(N)=O)NC(=O)[C@H](CCC(=O)O)NC1=O — lower, 5.54%
- N#Cc1c(NCCCO)nc(-c2ccco2)c2c1CCCC2 — lower, -0.659%
- COC(=O)c1ccc(CN2CCN(CCCc3ccccc3)C(CCO)C2)cc1 (stereo not drawn) — lower, -29.1%
- CC1CCN(S(=O)(=O)c2ccc(NC(=O)[C@@H]3CCCC[C@@H]3C(=O)O)cc2)CC1 — lower, 4.24%
- CCOC(=O)c1sc(NC(=O)Nc2ccc(F)cc2)nc1C — higher, 12.2%
- Cc1cc(C)cc(NC(=O)NCC(O)COc2ccc([N+](=O)[O-])cc2)c1 (stereo not drawn) — lower, 1.59%
- COc1ccc(C(=O)NNC(=O)Nc2ccc(C)cc2)cc1 — lower, 4.94%
- CCCc1cc(=O)oc2cc(OCc3ccc(OC)cc3)c(Cl)cc12 — higher, 12.3%
- Cc1nn(Cc2ccc(C(=O)Nc3nc4c(C)cccc4s3)o2)c(C)c1Br — higher, 11.6%
- Nc1c(C(=O)NC2CCCC2)c2nc3ccccc3nc2n1CC1CCCO1 (stereo not drawn) — lower, 4.79%
- COc1ccc(NC(=O)c2cn(CCC#N)nc2-c2cc3ccccc3o2)cc1 — lower, -0.96%
- C/C(=N\NC1=NCCN1)c1ccccc1 — higher, 15.8%
- CC(C)(C)NC(=O)N1CCC(CO)(Cc2ccccc2Cl)CC1 — higher, 7.38%
- O=C(CCCC(=O)Nc1ccccc1Br)N/N=C/c1c(F)cccc1Cl — higher, 7.28%
- Cc1c(CNCc2cccs2)c(C(=O)O)c(C)n1Cc1ccccc1 — lower, -3.44%
- CCN(CC)C(=O)c1sc2[nH]c(=S)n(-c3ccccc3)c(=O)c2c1C — higher, 10.7%
- NC(=O)C1CCN(c2nc(-c3ccc4ccccc4c3)cs2)CC1 — higher, 10.7%
- C=CCn1c(SCCOC)nc2c1c(=O)[nH]c(=O)n2C — higher, 10.8%
- CC1CCCCC12NC(=O)N(CC(=O)N1CCN(C(=O)c3ccco3)CC1)C2=O (stereo not drawn) — lower, 1.82%
- CCC(C)[C@H](NC(=O)Nc1ccc(S(N)(=O)=O)cc1)C(=O)O (stereo partly drawn) — higher, 7.38%
- COc1cccc(NC(=O)CN(C)C(=O)c2c(C)nn(-c3ccccc3)c2Cl)c1 — higher, 14.7%
- CCC(=O)N(C)CCc1cc2c(c(OC)c1/C=N/NC(=O)c1ccccc1O)OCO2 — lower, 4.94%
- Cc1ccc(NC(=O)COC(=O)C(NS(=O)(=O)c2ccc(Cl)cc2)C(C)O)c(Br)c1 (stereo not drawn) — higher, 11.1%
- COc1ccccc1N1CCN(C2CC(=O)N(c3cccc(Br)c3)C2=O)CC1 (stereo not drawn) — lower, -17.9%
- O=C(CN1C(=O)C2C3C=CC(C3)C2C1=O)N1CC(=O)N(CCc2ccccc2)C(=O)C1 (stereo not drawn) — lower, 2.8%
- Cc1nn(-c2ccccc2)c(Cl)c1/C=C1\SC(=S)NC1=O — higher, 22.4%
- OCCC1CN(CCCc2ccccc2)CCN1CCc1ccccc1 (stereo not drawn) — lower, -32.3%
- CC(C)CN(C(=O)CSc1nncn1-c1ccccc1)c1c(N)n(CC(C)C)c(=O)[nH]c1=O — higher, 9.44%
- Cc1cccc2cc(C#N)c(SCC(=O)N3CCC(C)CC3)nc12 — lower, -1.44%
- O=C(NC(=S)N1CCN(c2ccc(Cl)cc2[N+](=O)[O-])CC1)c1ccco1 — lower, -33.1%
- O=C(COC(=O)C1CCN(C(=O)Nc2ccccc2)CC1)NCC(F)(F)F — higher, 19.8%
- O=c1cc(-c2ccc(O)c(-c3c(O)cc(O)c4c(=O)cc(-c5ccc(O)cc5)oc34)c2)oc2cc(O)cc(O)c12 — lower, -3.17%
- CCOc1ccccc1N1CCN(Cc2ccco2)CC1 — lower, -2.6%
- COC(=O)C1=CN(Cc2ccc(C)cc2)C=C(C(=O)OC)C1c1ccc(F)c(F)c1 — higher, 9.17%
- Cc1cc(C)cc(N(C(=O)CNC(=O)c2ccco2)C(C(=O)NC2CCCCC2)c2cccnc2)c1 (stereo not drawn) — higher, 17.8%
- CCN(CC(=O)Nc1c(F)cccc1F)C(=O)Cc1csc(-c2ccccc2)n1 — lower, 1.91%
- Fc1ccc(-[n+]2nc(Nc3ccccc3)sc2-c2cccc(Cl)c2Cl)cc1.[Cl-] — lower, 6.23%

Source: publication PMC4336329 (PLoS ONE, 2015)
